The results in this text go back to paper PMC4336329 (PLoS ONE, 2015).

In all, about 310,000 compounds went through this assay and about 2,200 (0.71%) showed an effect of 50% or more. The effect is printed as a negative number. The list shows a part of the results.

The target in this assay is human ether-à-go-go-related gene (hERG) potassium channel (human, UniProt Q12809). Kind of assay: primary screen, population patch clamp on CHO cells stably expressing hERG.
Sequence of human ether-à-go-go-related gene (hERG) potassium channel (Q12809 whole entry, looked up): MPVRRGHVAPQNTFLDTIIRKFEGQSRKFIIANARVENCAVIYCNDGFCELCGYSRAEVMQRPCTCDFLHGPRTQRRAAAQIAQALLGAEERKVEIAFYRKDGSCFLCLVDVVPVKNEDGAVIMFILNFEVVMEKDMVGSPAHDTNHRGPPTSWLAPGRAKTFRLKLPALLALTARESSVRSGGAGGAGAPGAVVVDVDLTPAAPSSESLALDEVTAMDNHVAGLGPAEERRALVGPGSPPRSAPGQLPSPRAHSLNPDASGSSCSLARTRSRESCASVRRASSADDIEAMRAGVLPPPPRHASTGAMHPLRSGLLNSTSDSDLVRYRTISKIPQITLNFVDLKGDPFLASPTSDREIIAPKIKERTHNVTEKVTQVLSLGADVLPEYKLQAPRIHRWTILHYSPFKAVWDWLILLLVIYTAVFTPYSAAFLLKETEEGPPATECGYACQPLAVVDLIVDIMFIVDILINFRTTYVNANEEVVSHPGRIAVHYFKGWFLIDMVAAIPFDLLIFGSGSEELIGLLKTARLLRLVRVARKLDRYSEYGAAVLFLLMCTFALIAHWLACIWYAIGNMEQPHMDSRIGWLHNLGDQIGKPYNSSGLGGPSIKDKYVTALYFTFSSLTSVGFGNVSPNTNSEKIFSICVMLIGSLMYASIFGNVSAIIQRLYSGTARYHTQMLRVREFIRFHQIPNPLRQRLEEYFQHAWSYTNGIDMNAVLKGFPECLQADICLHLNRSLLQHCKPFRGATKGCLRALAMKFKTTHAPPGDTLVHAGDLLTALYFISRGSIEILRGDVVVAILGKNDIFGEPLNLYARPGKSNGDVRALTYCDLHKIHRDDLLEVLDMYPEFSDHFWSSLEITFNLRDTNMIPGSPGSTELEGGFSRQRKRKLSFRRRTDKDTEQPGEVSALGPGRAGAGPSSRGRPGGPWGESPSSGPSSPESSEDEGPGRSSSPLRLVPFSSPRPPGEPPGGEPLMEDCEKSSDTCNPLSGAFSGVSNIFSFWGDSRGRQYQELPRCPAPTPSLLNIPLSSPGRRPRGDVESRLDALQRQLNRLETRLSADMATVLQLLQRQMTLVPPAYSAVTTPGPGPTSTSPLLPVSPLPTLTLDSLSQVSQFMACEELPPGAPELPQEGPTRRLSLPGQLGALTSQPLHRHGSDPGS
Regarding `COc1ccc(OC)c(NC(=O)CN2C(=O)C3(OCCCO3)c3ccccc32)c1`, the “hERG current change (%, negative = inhibition) at 1uM” value is listed as -2.6%.

`Cc1cc(OCC#N)nc(N)n1`: the “hERG current change (%, negative = inhibition) at 1uM” value turned out to be 5.77%.

`CCCOc1ccc(C(=O)NC(C)C(=O)O)cc1` (centres unmarked): the “hERG current change (%, negative = inhibition) at 1uM” value is on record as 4.26%.

In the case of `Cc1ccc(N2C(=O)[C@@H]3C(C(=O)C(c4ccccc4)c4ccccc4)=NN[C@@H]3C2=O)cc1`, the “hERG current change (%, negative = inhibition) at 1uM” value worked out at 8.01%.

In the case of `COc1cc(C#N)ccc1OC(=O)C1CCN(C(=O)c2ccc(F)cc2)CC1`, the “hERG current change (%, negative = inhibition) at 1uM” value is recorded as -3.38%.

Regarding `COCCNC(=O)c1cc(-c2ccccn2)nc2ccc(S(=O)(=O)N3CCC(C)CC3)cc12`, the “hERG current change (%, negative = inhibition) at 1uM” value is -10.9%.

In the case of `Cc1ccc(S(=O)(=O)N[C@H](C(=O)N2CCC3(O)CCCCC3C2)c2ccccc2)cc1` (some centres unmarked), the “hERG current change (%, negative = inhibition) at 1uM” value was found to be 4.39%.

As to `Cc1ccccc1OCC(=O)OCC(=O)NCCc1ccccc1`, the “hERG current change (%, negative = inhibition) at 1uM” value is recorded as 11.8%.

For `Cc1cccc(C)c1NC(=O)COC(=O)c1ccc(N2CCCC2)c([N+](=O)[O-])c1`, the “hERG current change (%, negative = inhibition) at 1uM” value is recorded as 3.47%.

As to `COc1cc(/C=C2/SC(=O)NC2=O)ccc1OCc1ccccc1`, the “hERG current change (%, negative = inhibition) at 1uM” value worked out at 9.31%.

With `Cc1c(Cl)cccc1NC(=O)C1=COCCO1`, the “hERG current change (%, negative = inhibition) at 1uM” value was 20.6%.

For the molecule `CSCCC(NC(=O)COc1ccccc1)C(=O)OCc1ccc([N+](=O)[O-])cc1` (centres unmarked), the “hERG current change (%, negative = inhibition) at 1uM” value was -0.839%.

As for `O=C(CCC(=O)OCc1ccc(Cl)cc1)Nc1ccccc1`, the “hERG current change (%, negative = inhibition) at 1uM” value is listed as -0.0175%.

With `O=C(NC(Cc1ccccc1)C(=O)O)/C(=C/c1ccc(Br)cc1)NC(=O)c1ccc(Br)o1` (centres unmarked), the “hERG current change (%, negative = inhibition) at 1uM” value is on record as 12.7%.

As to `O=C(CNC(=O)N1CC(=O)Nc2ccccc21)Nc1cc(Cl)ccc1Cl`, the “hERG current change (%, negative = inhibition) at 1uM” value was 12%.

As to `CCS(=O)(=O)N1CCCC(C(=O)N2CCc3ccccc3C2)C1` (centres unmarked), the “hERG current change (%, negative = inhibition) at 1uM” value is -4.77%.

As for `CCn1c(SCC(=O)C(C)(C)C)nnc1-c1cnccn1`, the “hERG current change (%, negative = inhibition) at 1uM” value worked out at 13.5%.

As to `COc1ccc(C(=O)CCC(=O)Nc2ccc(Cl)cc2)cc1`, the “hERG current change (%, negative = inhibition) at 1uM” value was 14%.

Turning to `COc1ccc(C(=O)NC(C(=O)NCC2(N3CCCCC3)CCCCC2)C(C)C)cc1` (centres unmarked), the “hERG current change (%, negative = inhibition) at 1uM” value was 8%.

Regarding `COc1ccc2[nH]c(C(=O)O)c(CCN3C(=O)c4ccc(C(=O)O)cc4C3=O)c2c1`, the “hERG current change (%, negative = inhibition) at 1uM” value was found to be 8.94%.

On to `CCc1ccccc1NC(=O)N1CCCC(CCC(=O)N(C)CCc2ccccn2)C1` (centres unmarked), for which the “hERG current change (%, negative = inhibition) at 1uM” value is 10.8%.

As for `NS(=O)(=O)c1cccc(NC(=O)CSc2ncnc3ccccc23)c1`, the “hERG current change (%, negative = inhibition) at 1uM” value is 3.54%.

For the molecule `COc1ccc(CCNC(=O)N2CCOCC2)cc1`, the “hERG current change (%, negative = inhibition) at 1uM” value was found to be 8.32%.

Consider `CCNC(=S)N1CCN=C1Nc1nc(C)cc(C)n1`, for which the “hERG current change (%, negative = inhibition) at 1uM” value came to 7.53%.

For `COc1ccccc1C(=O)NNC(=S)NC(=O)c1cccs1`, the “hERG current change (%, negative = inhibition) at 1uM” value was 19%.

For the molecule `Cc1nc(SCC(=O)N2CCOCC2)c2c(=O)n(C)c(=O)n(C)c2n1`, the “hERG current change (%, negative = inhibition) at 1uM” value was 11.8%.

Turning to `CCOC(=O)N1CCN(C(=O)c2ccc3c(c2)N(Cc2cccc(Cl)c2)C(=O)c2ccccc2S3=O)CC1` (centres unmarked), the “hERG current change (%, negative = inhibition) at 1uM” value is listed as 14.4%.

As for `O=c1cc(O)c(-c2ccc(Cl)c(Cl)c2)c(Cl)[nH]1`, the “hERG current change (%, negative = inhibition) at 1uM” value worked out at 6.42%.

For `Nc1ccc(Br)c2c1C(=O)c1ccccc1C2=O`, the “hERG current change (%, negative = inhibition) at 1uM” value is listed as 7.59%.

With `COc1cccc(-c2ccc3nnc(SCC(=O)N4CCOCC4)n3n2)c1`, the “hERG current change (%, negative = inhibition) at 1uM” value amounted to 1%.

On to `Cc1ccc2nc(-c3ccccc3C)oc(=O)c2c1`, for which the “hERG current change (%, negative = inhibition) at 1uM” value came to 15.3%.

With `O=C(Cc1c(Cl)cccc1Cl)Nc1cccc(S(=O)(=O)N2CCOCC2)c1`, the “hERG current change (%, negative = inhibition) at 1uM” value is on record as -0.127%.

Turning to `CCCCN1C=C(C(=O)OC)C(c2ccccc2C(F)(F)F)C(C(=O)OC)=C1`, the “hERG current change (%, negative = inhibition) at 1uM” value is listed as -0.486%.

Consider `O=C(COc1cccc(F)c1)Nc1nc(-c2ccncc2)cs1`, for which the “hERG current change (%, negative = inhibition) at 1uM” value was determined as 11.1%.

With `O=C(NCCCN1CCCC1=O)[C@H](CSCc1ccccc1)N1Cc2ccccc2C1=O`, the “hERG current change (%, negative = inhibition) at 1uM” value stood at 9.36%.

Regarding `Cc1cc2c(cc1C)CN(c1ccccc1)C2`, the “hERG current change (%, negative = inhibition) at 1uM” value is recorded as 12.9%.

In the case of `COc1ccc(N(C(=O)c2snc(C(N)=O)c2N)C(C(=O)NCc2ccc(F)cc2)c2ccc(O)cc2)cc1` (centres unmarked), the “hERG current change (%, negative = inhibition) at 1uM” value is given as 18.9%.

Consider `CC(=O)c1cc(C#N)c(Oc2cccc(C(F)(F)F)c2)nc1C`, for which the “hERG current change (%, negative = inhibition) at 1uM” value came out at 15%.

In the case of `Cc1c(OCc2nn[nH]n2)ccc2c3c(c(=O)oc12)CCC(C)C3` (centres unmarked), the “hERG current change (%, negative = inhibition) at 1uM” value is reported as -0.451%.

On to `CS(=O)(=O)Nc1ccc(C(=O)Nc2ccccc2C(=O)NCc2ccco2)cc1`, for which the “hERG current change (%, negative = inhibition) at 1uM” value is -58%.

Regarding `CCC1=[N+]([O-])C(C)(/C(C)=N\O)N(O)C1(C)C` (centres unmarked), the “hERG current change (%, negative = inhibition) at 1uM” value came out at 11.4%.

As to `COC(=O)c1ccc(NC(=O)CSc2ccccc2)cc1`, the “hERG current change (%, negative = inhibition) at 1uM” value came to 7.95%.

Take `Cc1cc(N)n(C2CCN(C)CC2)n1`: the “hERG current change (%, negative = inhibition) at 1uM” value worked out at 6.55%.

On to `O=C(Nc1ccccc1)N1CCC(O)(c2cccc(C(F)(F)F)c2)CC1`, for which the “hERG current change (%, negative = inhibition) at 1uM” value is listed as 12%.
